# Among all 52,000 compounds or so, about 1,700 (3.3%) were called active. Cut-off read from the data, not from the text of the source: active = survival mostly below about 52% (no sharp cut-off); inactive = mostly above about 56%. Some of the results follow.
# Tested on: Wild type
# Assay: growth inhibition of S. aureus wild type versus tarO mutant, primary screen, teichoic acid synthesis inhibitors, RN4220, OD600 (AID 463173)
# Conditions: S. aureus RN4220 wild type/DeltatarO growth, OD600, 18 h, stronger effect = lower value; concentration not given here unless noted
row,Structure (SMILES),survival
1,CCOc1ccc2nc(NC(=O)c3cccn(Cc4ccc(C)cc4)c3=O)sc2c1,inactive: 76%
2,O=C(Nc1ccc(F)c(Cl)c1)N(Cc1ccc2c(c1)OCO2)C1CCN(Cc2ccccc2)CC1,inactive: 74%
3,Nc1c(C(=O)Nc2ccc(F)c(Cl)c2)sc2nc3c(cc12)N1CCC3CC1,inactive: 105%
4,O=C(Nc1ccc2c(c1)OCO2)c1cccn(Cc2ccccc2)c1=O,inactive: 68%
5,O=C(Nc1ccon1)c1cccn(Cc2cccc([N+](=O)[O-])c2)c1=O,inactive: 135%
6,O=C(Nc1ccccc1)N(Cc1ccc2c(c1)OCO2)C1CCN(Cc2ccccc2)CC1,inactive: 78%
7,COC(=O)c1ccccc1NC(=O)c1cccn(Cc2cccc(Cl)c2)c1=O,inactive: 75%
8,CC1CN2CCC3=C(CCCC3)C2(C)C1 (stereo not drawn),inactive: 95%
9,O=c1c2ccccc2nc(CN2CCCCC2)n1-c1ccccc1,inactive: 105%
10,CC12CN3CN(C1)CC(C)(C3)C2=O,inactive: 107%
11,O=c1c2ccccc2[nH]c(=S)n1-c1ccccc1,inactive: 108%
12,CN1CCC2(CC1)CC(NC=O)c1ccccc1O2 (stereo not drawn),inactive: 108%
13,Cc1ccc(-c2nc(CN3C(=O)CN=C(c4ccccc4Cl)c4cc(Cl)ccc43)c(C)o2)cc1,inactive: 90%
14,COc1ccc(C=C2C(=O)NC(=S)NC2=O)cc1,inactive: 96%
15,O=C(Nc1ccc2c(c1)OCCO2)c1cccn(Cc2ccccc2)c1=O,inactive: 85%
16,c1ccc(CN2CCNCC2)nc1,inactive: 100%
17,COc1ccc(C(CN)CC(=O)O)cc1 (stereo not drawn),inactive: 112%
18,Cc1cccc(Cn2cccc(C(=O)Nc3nnc(C)s3)c2=O)c1,inactive: 71%
19,Cc1ccc(NC(=O)CN2C(=O)CN=C(c3ccccc3)c3ccccc32)cc1Cl,inactive: 127%
20,O=C(Cc1ccccc1)N1CCN(C2CCCC2)CC1,inactive: 103%
21,N#Cc1cc2c(nc1SCC(=O)Nc1cccc(C(F)(F)F)c1)C1CCN2CC1,active: 0%

row,Structure (SMILES),survival
1,COc1ccc(C(c2c(O)c3ccccc3oc2=O)c2c(C)n(C)n(-c3ccccc3)c2=O)cc1 (stereo not drawn),inactive: 61%
2,CCSc1nnc(NC(=O)c2cccn(Cc3ccccc3Cl)c2=O)s1,inactive: 71%
3,CCOc1ccccc1NC(=O)c1cccn(Cc2ccccc2C)c1=O,inactive: 82%
4,O=CNc1nonc1NNc1nonc1NC=O,inactive: 100%
5,CC(=O)c1cccc(NC(=O)c2cccn(Cc3cccc(C)c3)c2=O)c1,inactive: 82%
6,OC1(c2cccc(F)c2)CC2CCC(C1)N2Cc1nnnn1CCc1ccccc1 (stereo not drawn),inactive: 105%
7,COc1ccc(NC(=O)CN2C(=O)C(C)N=C(c3ccccc3)c3ccccc32)cc1OC (stereo not drawn),inactive: 127%
8,Cc1ccc(Cn2cccc(C(=O)Nc3nc4ccc(C)cc4s3)c2=O)cc1,inactive: 127%
9,Cc1c(/C(CC(C)C)=N/O)c2ccccc2n1C,inactive: 113%
10,O=C(O)C12C3CCCC1C32c1ccccc1 (stereo not drawn),inactive: 111%
11,CCc1ccc(-n2nc(C)c3c2NC(=O)CSC3c2ccccc2C)cc1 (stereo not drawn),inactive: 84%
12,Cc1[nH]c2c(C)cccc2c1CCN,inactive: 129%
13,Cc1ccc(OCC(=O)Nc2ccc(Cl)cc2C(=O)c2ccccc2)c(Br)c1,inactive: 84%
14,Cc1cc(C)cc(NC(=O)CN2C(=O)CN=C(c3ccccc3)c3cc(Cl)ccc32)c1,inactive: 82%
15,O=C(COc1ccc(Br)cc1)Nc1ccc(Cl)cc1C(=O)c1ccccc1,inactive: 72%
16,c1cnc2c(c1)ncn2C1CCNCC1,inactive: 84%
17,COc1ccc(CCNC2CCCCC2)cc1OC,inactive: 117%
18,COc1cccc(-n2c(/C=C\c3ccc(Cl)cc3)nc3ccccc3c2=O)c1,inactive: 48%
19,Cc1ccc(C(C)(C)C)c(OCC(=O)Nc2ccc(Cl)cc2C(=O)c2ccccc2)c1,inactive: 65%
20,CCN1CCN(Cc2nnnn2C(C)(C)C)CC1,inactive: 95%
21,Cc1ccnc(NS(=O)(=O)c2ccc(N=Cc3c(O)n(C)c(=O)n(C)c3=O)cc2)n1,inactive: 96%

row,Structure (SMILES),survival
1,COc1ccc(C(C(=O)NC2CCCCC2)N(CCN2CCOCC2)C(=O)Cc2c[nH]c3ccccc23)cc1OC (stereo not drawn),inactive: 105%
2,Cc1ccc(OCC(=O)N2CCN(Cc3ccc(F)cc3)CC2)cc1,inactive: 126%
3,Cc1cccc(OCC(=O)N2CCN(Cc3cc(=O)n4nc(-c5ccccc5Cl)sc4n3)CC2)c1,inactive: 97%
4,CCC12CN3CN(C1)CC(CC)(C3)C2O (stereo not drawn),inactive: 106%
5,Cc1ccccc1-c1nn2c(=O)cc(CN3CCN(C(=O)COc4ccccc4Cl)CC3)nc2s1,inactive: 140%
6,CCC(N)C(=O)c1ccc(Cl)cc1 (stereo not drawn),inactive: 105%
7,Cc1ccc(-n2c(/C=C\c3ccc(F)c(F)c3)nc3ccccc3c2=O)c(C)c1,inactive: 68%
8,O=C1NC(=O)C(CCc2ccncc2)(c2ccccc2)C(=O)N1,inactive: 106%
9,COc1cccc(N=Cc2c(O)n(Cc3ccco3)c(=O)[nH]c2=O)c1,inactive: 102%
10,Cc1ccc2nc(NC(=O)c3cccn(Cc4ccccc4F)c3=O)sc2c1,inactive: 88%
11,Cc1ccc2c(=O)n(-c3cccc(Cl)c3)c(=O)[nH]c2c1,inactive: 76%
12,COc1cc2[nH]c(=O)n(-c3ccc(C)cc3)c(=O)c2cc1OC,inactive: 71%
13,CCN(CC)C(=O)c1ccc(NC(=O)COc2ccc(-c3nn(C)c(=O)c4ccccc34)cc2)cc1,inactive: 93%
14,C=CCN1C(=O)NC(=O)/C(=C/c2ccc(OCC(=O)O)c(OCC)c2)C1=O,inactive: 100%
15,CN1CCC(NCCO)CC1,inactive: 105%
16,Cc1ccccc1-c1nc(CN2C(=O)CN=C(c3ccccc3)c3ccccc32)c(C)o1,active: 2%
17,COc1ccccc1-c1nn2c(=O)cc(CN3CCN(C(=O)COc4ccccc4Cl)CC3)nc2s1,inactive: 85%
18,CCc1ccc(-n2nc(C)c3c2NC(=O)CSC3c2ccc(C(=O)OC)cc2)cc1 (stereo not drawn),inactive: 89%
19,CN1CCC2(CC1)CC(=O)c1ccccc1O2,inactive: 107%
20,O=C(Nc1ccc(Br)cc1C(=O)c1ccccc1Cl)c1ccc(Br)cc1,inactive: 136%
21,COc1cc(OC)cc(C(=O)Nc2ccc(Cl)cc2C(=O)c2ccccc2Cl)c1,inactive: 139%
